Assay results published in PubChem BioAssay (Tox21).
Values joined by “and” are separate entries in the source; they are usually repeats but may differ in a detail not shown here. Identical values can stand only once. The inconclusive results got no clear call from the source; some entries with a clear call stand among them for comparison. Potencies beside an inconclusive call are fits to weak or partial responses and may not hold up. Where a structure was tested more than once in an assay, its records may differ in their call. Active and inactive are the calls of the source. Calls come from the whole dose curve; as a rule, active = well fitted cell-killing curve with a large enough effect in the repeat runs; inconclusive = weak or mixed curves, or effect the other way; inactive = flat fitted curve, though single readings scatter.

test: qHTS assay to identify small molecule antagonists of the androgen receptor (AR) signaling pathway using the MDA cell line - cell viability counter screen (AID 743041; note: nearly all actives have a fitted effect of over 45% in size); settings: MDA-kb2 viability, CellTiter-Fluor, 16 h, cells co-treated with R1881 androgen agonist; viability change, negative = cytotoxic: at 70.3 µM (top of the series) unless noted
From the text: National Center for Advancing Translational Sciences [NCATS]
NIH Chemical Genomics Center [NCGC]
U.S. Environmental Protection Agency [EPA]
National Institutes of Environmental Health Sciences [NIEHS]
National Toxicology Program [NTP]
U.S. Food and Drug Administration [FDA]
Androgen receptor (AR), a nuclear hormone receptor, plays a critical role in AR-dependent prostate cancer and other androgen related diseases. Endocrine disrupting chemicals (EDCs) and their interactions with steroid hormone receptors like AR may cause disruption of normal endocrine function as well as interfere with metabolic homeostasis, reproduction, developmental and behavioral functions. To identify the compounds that inhibit AR signaling, MDA-kb2 AR-luc cell line (from ATCC, deposited by Wilson et al.) was used to screen the Tox21 10K compound library. MDA-kb2 AR-luc cell line is human breast carcinoma cell line that was stably transfected with a luciferase reporter gene under control of the MMTV promoter containing response elements for both androgen receptor (AR) and glucocorticoid receptor (GR). The cytotoxicity of the Tox21 compound library against the MDA-kb2 AR-luc cell line was tested in parallel by measuring the cell viability using CellTiter-Fluor assay (Promega, Madison, WI) in the same wells.
Tox21 Assay Protocol Summary:
MDA-kb2 AR-luc cells were dispensed at 3,000 cells/4 uL/well of culture medium into white wall/solid-bottom 1536-well plates using a Multidrop Combi (ThermoFisher Scientific, Waltham, MA) dispenser. After the assay plates were incubated at a 37C and 0% CO2 for 5 hr, 23 nL of compounds dissolved in DMSO, positive controls or DMSO only was transferred to the assay plate by a Pintool station (Kalypsys, San Diego, CA), followed by addition of 1 uL of agonist (R1881) in culture medium using a Bioraptr Flying Reagent Dispenser (FRD) workstation (Beckman Coulter, Indianapolis, IN, USA). The plates were incubated at a 37C and 0% CO2 for 16 h. After 15.5 h incubation, 1uL of CellTiter-Fluor reagent (Promega) was added using a Bioraptr FRD to each plate for measuring cytotoxicity. The fluorescence intensity was quantified on a ViewLux plate reader (PerkinElmer, Shelton, CT) following 30 min incubation at 37C and 0% CO2.
% is set by controls: 0 for no effect and ±100 for the full control effect; potency is the fitted concentration of half-maximal effect; tags give direction and shape of the fitted curve.

Row | SMILES | viability change, negative = cytotoxic | Potency
1 | C=C(C)C(=O)OCCCCCC | inconclusive: 30.7% | 
2 | C=C(C)C(=O)OCCC[Si](Cl)(Cl)Cl |  | inactive
3 | Cc1cc(=O)oc2cc(O)cc(O)c12 |  | inconclusive: 68.8 µM [rising, single point]
4 | O=C(O)Cc1cccc2ccccc12 |  | inconclusive: 24.3 µM [rising, full curve]
5 | COCCCC/C(=N\OCCN)c1ccc(C(F)(F)F)cc1 |  | inconclusive: 33.5 µM [cytotoxic]
6 | CO[C@H]1C=CO[C@@]2(C)Oc3c(C)c(O)c4c(O)c(c(/C=N/N5CCN(C)CC5)c(O)c4c3C2=O)NC(=O)/C(C)=C\C=C[C@H](C)[C@H](O)[C@@H](C)[C@@H](O)[C@@H](C)[C@H](OC(C)=O)[C@@H]1C |  | active: 26.6 µM and inconclusive: 24.5 µM [cytotoxic, partial curve] and inconclusive: 43.8 µM [cytotoxic, partial curve, poor fit]
7 | CN1CCN2c3ccccc3Cc3ccccc3C2C1 (stereo not given) |  | inconclusive: 31.2 µM [cytotoxic, single point]
8 | CCc1ccc(O)c(C(C)(C)C)c1 |  | inconclusive: 68.6 µM [cytotoxic, partial curve, poor fit]
9 | CN1CCN(C2Cc3ccccc3Sc3ccc(Cl)cc32)CC1 (stereo not given) |  | inconclusive: 6.68 µM [rising, full curve]
10 | O=C1NCCN1CCN1CCC(c2cn(-c3ccc(F)cc3)c3ccc(Cl)cc23)CC1 |  | active: 13.3 µM and active: 21.1 µM
11 | C1CCCCC1 |  | inactive
12 | c1cnc2c(c1)ccc1cccnc12 |  | inconclusive: 24.3 µM [cytotoxic, single point]
13 | CCOc1ccc(N)c([N+](=O)[O-])c1 |  | inconclusive: 48.6 µM [cytotoxic, partial curve, poor fit]
14 | CCCCCCCCCCCC[N+](C)(C)C |  | inconclusive: 24.3 µM [cytotoxic, full curve]
15 | C/C=C/C(=O)CCCC |  | inactive
16 | Cc1ccc(O)c(N)c1 |  | inconclusive: 68.7 µM [cytotoxic, partial curve, poor fit]
17 | CCC(C)N(C)C(=O)c1cc2ccccc2c(-c2ccccc2Cl)n1 (stereo not given) |  | inactive
18 | Cc1cccc(Nc2cc(Cl)nc(SCC(=O)O)n2)c1C |  | inactive
19 | CCCCN(CCCC)CC(O)c1cc(Cl)cc2c1-c1ccc(Cl)cc1/C2=C/c1ccc(Cl)cc1 (stereo not given) |  | inconclusive: 11.9 µM [rising, full curve, poor fit]
20 | COc1ccc(Nc2ccc(OC)cc2)cc1 |  | inactive

Row | SMILES | viability change, negative = cytotoxic | Potency
21 | Cc1cc(N)c2cc(NC(=O)Nc3ccc4nc(C)cc(N)c4c3)ccc2n1 |  | inconclusive: 26.6 µM [cytotoxic, partial curve]
22 | CN(C)c1ccncc1 |  | inactive
23 | Cc1cccc(C(C)(C)C)c1O |  | inactive
24 | C=CC(=O)OCCOCCOC(=O)C=C |  | inconclusive: 54.7 µM [cytotoxic, partial curve]
25 | CN(C)c1ccc(C(=C2C=CC(=[N+](C)C)C=C2)c2ccc(N(C)C)cc2)cc1 |  | active: 3.35 µM and active: 7.66 µM and active: 4.33 µM
26 | COC(=O)[C@H]1[C@H]2C[C@@H]3c4[nH]c5cc(OC)ccc5c4CCN3C[C@H]2C[C@@H](OC(=O)c2cc(OC)c(OC)c(OC)c2)[C@@H]1OC |  | inconclusive: 5.31 µM [rising, full curve, poor fit]
27 | OCc1c[nH]c2ccccc12 |  | inconclusive: 48.6 µM [cytotoxic, partial curve, poor fit]
28 | CCCCCCCCCCCCOCCOCCOCCOCCOCCOCCOCCOCCOCCO |  | active: 8.41 µM
29 | CCC(C)NC(N)=O (stereo not given) |  | inactive
30 | CCc1nn(C2CCCCC2)c2cc(C3(C#N)CCC(C(=O)O)CC3)ccc12 (stereo not given) |  | inactive
31 | O=S(=O)(O)c1ccc(Nc2nc(Nc3ccc(/C=C/c4ccc(Nc5nc(Nc6ccc(S(=O)(=O)O)cc6)nc(N(CCO)CCO)n5)cc4S(=O)(=O)O)c(S(=O)(=O)O)c3)nc(N(CCO)CCO)n2)cc1 |  | inconclusive: 36.8 µM [rising, single point]
32 | CC(=O)Oc1ccc(C(c2ccc(OC(C)=O)cc2)c2ccccn2)cc1 |  | inconclusive: 1.39 µM [cytotoxic, full curve] and inconclusive: 963 nM [cytotoxic, full curve]
33 | CCCC(C(=O)OCCN(CC)CC)(c1ccccc1)c1ccccc1 |  | inconclusive: 33.5 µM [cytotoxic]
34 | O=C1C=CC(=O)N1 |  | active: 55.9 µM
35 | COc1ccc(Br)c(C)c1 |  | inactive
36 | CC1(C)OC[C@@H]2O[C@@]3(C(=O)O)OC(C)(C)O[C@H]3[C@@H]2O1 |  | inactive
37 | O=C1NC2CCCCN2C12CCN(CCCN1c3ccccc3CCc3ccc(Cl)cc31)CC2 (stereo not given) |  | inconclusive: 33.5 µM [cytotoxic, single point]
38 | Cc1cc(C)cc(OCC2CNC(=O)O2)c1 (stereo not given) |  | inactive
39 | O=C1Nc2ccccc2C1(c1ccc(O)cc1)c1ccc(O)cc1 |  | inconclusive: 0.273 µM [cytotoxic, full curve]

same assay, conditions: MDA-kb2 viability, CellTiter-Fluor, 16 h; at 70.3 µM (top of the series); cells co-treated with R1881 androgen agonist

Row | SMILES | viability change, negative = cytotoxic
40 | C=C(C)C(=O)OCCCCCC | inactive: 2.54%
